# Results reported in the supplement of paper PMC8728848.
# The list shows a part of the results.
# B1: Cohesin-hMARCO (Homo sapiens) (protein)
# chain: LDDLDAVRIKVDTVNAKPGDTVRIPVRFSGIPSKGIANCDFVYSYDPNVLEIIEIEPGDIIVDPNPDKSFDTAVYPDRKIIVFLFAEDSGTGAYAITKDGVFATIVAKVKEGAPNGLSVIKFVEVGGFANNDLVEQKTQFFDGGANVGDTTEPATPTTPVTTPTTTDDLDAASVRIVGSSNRGRAEVYYSGTWGTICDDEWQNSDAIVFCRMLGYSKGRALYKVGAGTGQIWLDNVQCRGTESTLWSCTKNSWGHHDCSHEEDAGVECSVHHHHHH
# Key:
# Experiment in all cases: glycan array binding signal (z-score within array); higher = stronger binding
# Details in all cases: glycan notation: IUPAC condensed, linker removed
# [1] = target: Gal(b1-4)GlcNAc(b1-3)Gal(b1-4)GlcNAc(b1-3)Gal(b1-4)GlcNAc(b1-3)Gal(b1-4)GlcNAc(b1-2)Man(a1-3)[Gal(b1-4)GlcNAc(b1-3)Gal(b1-4)GlcNAc(b1-3)Gal(b1-4)GlcNAc(b1-3)Gal(b1-4)GlcNAc(b1-2)Man(a1-6)]Man(b1-4)GlcNAc(b1-4)[Fuc(a1-6)]GlcNAc
# In short: (§1)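 Glycan array binding is given as a within-array Z-score, which can be read as non-binding when negative. The arrays, 3228 of them, came from the Consortium for Functional Glycomics database and were retained only where the protein sequence was available. Z-scores were averaged across arrays of the same protein sequence at different concentrations or buffers and across linkers.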
# [2] = target: Gal(b1-4)GlcNAc(b1-3)Gal(b1-4)GlcNAc(b1-3)Gal(b1-4)GlcNAc(b1-3)Gal(b1-4)GlcNAc(b1-2)[Gal(b1-4)GlcNAc(b1-3)Gal(b1-4)GlcNAc(b1-3)Gal(b1-4)GlcNAc(b1-3)Gal(b1-4)GlcNAc(b1-6)]Man(a1-6)[Gal(b1-4)GlcNAc(b1-3)Gal(b1-4)GlcNAc(b1-3)Gal(b1-4)GlcNAc(b1-3)Gal(b1-4)GlcNAc(b1-2)Man(a1-3)]Man(b1-4)GlcNAc(b1-4)[Fuc(a1-6)]GlcNAc
# In short: as §1
# [3] = target: Gal(b1-4)GlcNAc(b1-3)Gal(b1-4)GlcNAc(b1-3)Gal(b1-4)GlcNAc(b1-3)Gal(b1-4)GlcNAc(b1-3)Gal(b1-4)GlcNAc(b1-2)Man(a1-3)[Gal(b1-4)GlcNAc(b1-3)Gal(b1-4)GlcNAc(b1-3)Gal(b1-4)GlcNAc(b1-3)Gal(b1-4)GlcNAc(b1-3)Gal(b1-4)GlcNAc(b1-2)Man(a1-6)]Man(b1-4)GlcNAc(b1-4)GlcNAc
# In short: as §1
# [4] = target: Gal(b1-4)GlcNAc(b1-3)Gal(b1-4)GlcNAc(b1-3)Gal(b1-4)GlcNAc(b1-3)Gal(b1-4)GlcNAc(b1-3)Gal(b1-4)GlcNAc(b1-2)Man(a1-3)[Gal(b1-4)GlcNAc(b1-3)Gal(b1-4)GlcNAc(b1-3)Gal(b1-4)GlcNAc(b1-3)Gal(b1-4)GlcNAc(b1-3)Gal(b1-4)GlcNAc(b1-2)Man(a1-6)]Man(b1-4)GlcNAc(b1-4)[Fuc(a1-6)]GlcNAc
# In short: as §1
# [5] = target: Gal(b1-4)GlcNAc(b1-3)Gal(b1-4)GlcNAc(b1-3)Gal(b1-4)GlcNAc(b1-3)Gal(b1-4)GlcNAc(b1-3)Gal(b1-4)GlcNAc(b1-2)[Gal(b1-4)GlcNAc(b1-3)Gal(b1-4)GlcNAc(b1-3)Gal(b1-4)GlcNAc(b1-3)Gal(b1-4)GlcNAc(b1-3)Gal(b1-4)GlcNAc(b1-6)]Man(a1-6)[Gal(b1-4)GlcNAc(b1-3)Gal(b1-4)GlcNAc(b1-3)Gal(b1-4)GlcNAc(b1-3)Gal(b1-4)GlcNAc(b1-3)Gal(b1-4)GlcNAc(b1-2)Man(a1-3)]Man(b1-4)GlcNAc(b1-4)[Fuc(a1-6)]GlcNAc
# In short: as §1
# [6] = target: Gal(b1-4)GlcNAc(b1-3)Gal(b1-4)GlcNAc(b1-3)Gal(b1-4)GlcNAc(b1-3)Gal(b1-4)GlcNAc(b1-3)Gal(b1-4)GlcNAc(b1-3)Gal(b1-4)GlcNAc(b1-2)Man(a1-3)[Gal(b1-4)GlcNAc(b1-3)Gal(b1-4)GlcNAc(b1-3)Gal(b1-4)GlcNAc(b1-3)Gal(b1-4)GlcNAc(b1-3)Gal(b1-4)GlcNAc(b1-3)Gal(b1-4)GlcNAc(b1-2)Man(a1-6)]Man(b1-4)GlcNAc(b1-4)GlcNAc
# In short: as §1
# [7] = target: Gal(b1-4)GlcNAc(b1-3)Gal(b1-4)GlcNAc(b1-3)GalNAc
# In short: as §1
# [8] = target: Gal(b1-4)GlcNAc(b1-3)Gal(b1-4)GlcNAc(b1-3)[Gal(b1-4)GlcNAc(b1-3)Gal(b1-4)GlcNAc(b1-6)]GalNAc
# In short: as §1
# [9] = target: Gal(b1-4)GlcNAc(b1-3)Gal(b1-4)GlcNAc(b1-6)[Gal(b1-3)]GalNAc
# In short: as §1
# [10] = target: Gal(b1-4)GlcNAc(b1-3)Gal(b1-4)[Fuc(a1-3)]GlcNAc(b1-3)Gal(b1-4)[Fuc(a1-3)]GlcNAc
# In short: as §1
# [11] = target: Gal(b1-4)GlcNAc(b1-3)GalNAc
# In short: as §1
# [12] = target: Gal(b1-4)GlcNAc(b1-3)[Fuc(a1-3)GlcNAc(b1-6)]Gal(b1-4)Glc
# In short: as §1
# [13] = target: Gal(b1-4)GlcNAc(b1-3)[Gal(b1-4)GlcNAc(b1-6)]Gal(b1-4)GlcNAc
# In short: as §1
# [14] = target: Gal(b1-4)GlcNAc(b1-3)[GlcNAc(b1-6)]Gal(b1-4)GlcNAc
# In short: as §1
# [15] = target: Gal(b1-4)GlcNAc(b1-6)Gal(b1-4)GlcNAc
# In short: as §1
# [16] = target: Gal(b1-4)GlcNAc(b1-6)GalNAc
# In short: as §1
# [17] = target: Gal(b1-4)GlcNAc(b1-6)[Gal(b1-3)]GalNAc
# In short: as §1
# [18] = target: Gal(b1-4)GlcNAc(b1-6)[Gal(b1-4)GlcNAc(b1-3)]GalNAc
# In short: as §1
# Gal(b1-4)GlcNAc6P = target: Gal(b1-4)GlcNAc6P
# In short: as §1
# Gal(b1-6)Gal = target: Gal(b1-6)Gal
# In short: as §1
# Gal3S(b1-3)GalNAc = target: Gal3S(b1-3)GalNAc
# In short: as §1
# Gal3S(b1-3)GlcNAc = target: Gal3S(b1-3)GlcNAc
# In short: as §1
# [19] = target: Gal3S(b1-3)[Fuc(a1-4)]GlcNAc
# In short: as §1
binder,measurement,setting,value
B1,glycan array binding signal (z-score),[1],0.123
same,glycan array binding signal (z-score),[2],-0.11
same,glycan array binding signal (z-score),[3],-0.199
same,glycan array binding signal (z-score),[4],-0.04
same,glycan array binding signal (z-score),[5],0.985
same,glycan array binding signal (z-score),[6],0.192
same,glycan array binding signal (z-score),[7],-0.386
same,glycan array binding signal (z-score),[8],-0.089
same,glycan array binding signal (z-score),[9],-0.364
same,glycan array binding signal (z-score),[10],-0.369
same,glycan array binding signal (z-score),[11],-0.406
same,glycan array binding signal (z-score),[12],-0.489
same,glycan array binding signal (z-score),[13],-0.454
same,glycan array binding signal (z-score),[14],-0.33
same,glycan array binding signal (z-score),[15],-0.387
same,glycan array binding signal (z-score),[16],1.21
same,glycan array binding signal (z-score),[17],-0.383
same,glycan array binding signal (z-score),[18],0.033
same,glycan array binding signal (z-score),Gal(b1-4)GlcNAc6P,-0.353
same,glycan array binding signal (z-score),Gal(b1-6)Gal,-0.13
same,glycan array binding signal (z-score),Gal3S(b1-3)GalNAc,0.13
same,glycan array binding signal (z-score),Gal3S(b1-3)GlcNAc,0.286
same,glycan array binding signal (z-score),[19],0.294
